Source: PubChem BioAssay AID488969 (Vanderbilt High Throughput Screening Facility, 2010)
Over roughly 110,000 compounds, “z-score” has its median near -0.1; the highest 2% begin near 2. The list shows a part of the results. Activity calls are given as the source filed them.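 Rule for the calls: active = z-score in the third read window above 3 or below -3; inactive = the rest.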

These molecules were tested against Metabotropic glutamate receptor 8 (Rattus norvegicus) (UniProt P70579) (assay: rat mGluR8 modulators via GIRK flux, primary screen, cell-based, thallium flux, HTS (AID 488969)). Conditions: HEK293 rat mGluR8, GIRK (G protein-gated inwardly rectifying potassium channel) thallium flux, FluoZin2; at 10 µM; stronger effect = higher value; submaximal glutamate (EC20) added with thallium.
UniProt P70579, sequence (P70579 whole entry, looked up): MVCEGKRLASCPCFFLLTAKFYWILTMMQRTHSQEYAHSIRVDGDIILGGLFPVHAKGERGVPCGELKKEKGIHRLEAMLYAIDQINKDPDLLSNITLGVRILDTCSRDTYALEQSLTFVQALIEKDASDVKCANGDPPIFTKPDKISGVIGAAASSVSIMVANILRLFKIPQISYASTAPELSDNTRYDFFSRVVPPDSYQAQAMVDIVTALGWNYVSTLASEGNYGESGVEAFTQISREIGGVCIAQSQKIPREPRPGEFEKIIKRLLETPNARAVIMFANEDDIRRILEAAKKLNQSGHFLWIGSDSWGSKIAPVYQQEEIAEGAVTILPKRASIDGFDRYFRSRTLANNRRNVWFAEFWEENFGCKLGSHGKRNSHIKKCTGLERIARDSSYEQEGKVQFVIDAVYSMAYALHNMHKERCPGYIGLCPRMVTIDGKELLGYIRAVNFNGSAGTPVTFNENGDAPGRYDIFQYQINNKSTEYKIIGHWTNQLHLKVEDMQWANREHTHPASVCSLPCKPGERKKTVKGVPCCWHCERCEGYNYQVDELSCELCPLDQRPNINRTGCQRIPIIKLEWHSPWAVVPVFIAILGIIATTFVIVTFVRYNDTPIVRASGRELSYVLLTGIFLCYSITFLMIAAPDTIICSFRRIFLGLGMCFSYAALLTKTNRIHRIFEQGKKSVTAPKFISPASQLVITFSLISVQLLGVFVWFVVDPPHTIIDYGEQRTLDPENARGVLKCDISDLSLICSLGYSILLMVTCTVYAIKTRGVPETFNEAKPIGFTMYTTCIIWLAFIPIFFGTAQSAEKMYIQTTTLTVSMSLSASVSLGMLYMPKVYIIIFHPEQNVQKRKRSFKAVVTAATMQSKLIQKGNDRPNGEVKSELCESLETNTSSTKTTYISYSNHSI

Point of comparison: `O=C1CCCC2=C1C(c1cccs1)n1nc(SCc3ccccc3F)nc1N2` (stereo not given), z-score -1.01. Against it:
- Cn1c(N2CCN(C(=O)NC34CC5CC(CC(C5)C3)C4)CC2)nc2ccccc21 — higher, -0.317
- Cc1nnc(SCc2nc3ccccc3nc2C)s1 — higher, -0.127
- c1ccc(-c2nc(-c3ccncc3)no2)cc1 — higher, -0.104
- NS(=O)(=O)c1ccc(N=Cc2ccc(Br)s2)cc1 — higher, 0.29
- CCN1CCN(CCNC(=O)c2cn(Cc3ccccc3F)nn2)CC1 — higher, -0.203
- CCOC(=O)c1sc2nc(CC(=O)OC)nc(NCCN(CC)CC)c2c1C — higher, 0.798
- CCC(C)(C)NC(=O)c1ccc(Sc2nncn2C)c([N+](=O)[O-])c1 — higher, -0.281
- CCOC(=O)C1CCN(C(=O)C(=O)N2CCC(C(=O)OCC)CC2)CC1 — higher, -0.854
- CC(C)Sc1nnc(CNC(=O)C23CC4CC(CC(C4)C2)C3)n1C1CCCCC1 — higher, -0.462
- COc1ccc(C2(CNC(=O)/C=C/c3ccco3)CCCC2)cc1OC — higher, -0.281
- O=C(CCSc1ccccc1)Nc1nc2c(s1)CCCC2 — higher, -0.0634
- CC1=C(C(=O)Nc2ccccc2)C(c2ccc(C(C)C)cc2)N2C(=O)CSC2=N1 (stereo not given) — higher, -0.311
- CCc1nnc(NC(=O)c2ccc3c(c2)C(=O)N(C(C)(C)C)C3=O)s1 — higher, 0.0532
- CCOC(=O)C(NC(C)=O)(Nc1ccc(S(=O)(=O)Nc2cc(C)on2)cc1)C(F)(F)F (stereo not given) — higher, 0.128
- CS(=O)(=O)N1CCC(C(=O)Nc2ccccc2F)CC1 — higher, -0.337
- Cc1c(Cl)cccc1NC(=O)NC1CCCCC1 — higher, 0.337
- CCCn1c(NCc2cccc(OC)c2OC)nc2ccccc21 — higher, -0.349
- O=S(=O)(c1cccs1)n1cccn1 — higher, -0.325
- Nc1nc(SCC(=O)NC2CCCC2)[nH]c(=O)c1-c1ccccc1 — higher, -0.603
- O=C(Nn1cnnc1)c1ccccc1CCc1ccccc1 — higher, 0.0675
- O=C(Nc1ccccc1)Nc1nccs1 — higher, 1.3
- N#Cc1cccc(NC(=S)Nc2ccccc2)c1 — higher, 0.595
- COc1c2occc2c(OC)c2c(=O)cc(C(F)(F)F)oc12 — higher, 2.92
- Cc1n[nH]c(=O)n1-c1ccc(Oc2ccccc2)cc1 — higher, -0.481
- CCSc1nnc2nc(C)cc(C)n12 — higher, -0.0279
- COc1cccc(NC(=O)C(OC(=O)c2ccccc2NS(=O)(=O)c2cccs2)c2ccccc2)c1 (stereo not given) — higher, -0.172
- c1ccc(-c2nc(NCCCn3ccnc3)c3oc4ccccc4c3n2)cc1 — higher, -0.0957
- CC(C)c1nnc(NC(=O)CCCCCN2C(=O)C3C4C=CC(C4)C3C2=O)s1 (stereo not given) — higher, -0.165
- CCn1ncc(C2=NOC(C(=O)NCC(C)C)C2)c1C (stereo not given) — higher, -0.21
- Cc1cccc(C)c1NC(=O)CC1SC2=NCCN2C1=O (stereo not given) — higher, 1.06
- COC1=C(Nc2ccc(OC)cc2)C(=O)c2ccccc2C1=O — higher, -0.233
- O=C(Oc1cccnc1)c1ccco1 — higher, -0.0559
- O=C(O)CCc1ccc(-c2cccs2)n1CCC(=O)O — higher, -0.221
- CC(C)(C)C(=O)CNS(=O)(=O)c1ccc(S(=O)(=O)NC2CCCC2)cc1 — higher, 0.0762
- O=C(NCCC1=CCCCC1)C1CCN(S(=O)(=O)c2cccc3nonc23)CC1 — higher, 0.225
- Cc1ccccc1OCC(=O)NCCC(=O)O — higher, 0.0367
- CCn1c(-c2cccs2)nc2ccccc21 — higher, -0.122
- Cc1cc(OCc2nc(-c3cccs3)no2)cc(C)c1Cl — higher, 0.00195
- Cc1ccc(C(=O)NC(=S)Nc2ccc(NC(=O)c3cccs3)cc2)cc1[N+](=O)[O-] — higher, -0.0512
- COc1ccc(/C=N/NC(=O)CCN2CCN(c3ccccc3)CC2)c(OC)c1OC — higher, -0.366
- CCCn1cc(NC(=O)C2CC(c3cccc(Br)c3)=NO2)cn1 (stereo not given) — higher, -0.352
- COc1cccc(NC(=S)N2CCN(Cc3ccccc3)CC2)c1 — higher, 0.0461
- COc1cccc(Nc2ncnc3ccccc23)c1 — higher, -0.25
- CN(C(=O)c1ccccc1Cl)C1CCCCC1 — higher, 0.549
- CCc1ccc(NC(=O)CSC2=C(C#N)C(c3ccco3)C3=C(CCCC3=O)N2)cc1 (stereo not given) — lower, -1.16
- CCc1ccccc1NC(=O)Cn1nc(C(F)(F)F)c2c1CCC2 — higher, 1.15
- CC1CCCC(C)N1C(=O)CN1CCN(c2nc(-c3ccc(F)cc3)cs2)CC1 (stereo not given) — lower, -1.12
- CC(=O)c1nn(-c2cccc(Br)c2)cc1C(=O)c1ccco1 — higher, 0.0966
- C(=N\Nc1nc2ccccc2[nH]1)/c1c[nH]c2ccccc12 — higher, -0.588
- Cc1cc(C)n(-c2c(F)c(F)c(CO)c(F)c2F)n1 — higher, -0.22
- O=S(=O)(NC12CC3CC(CC(C3)C1)C2)c1ccc(F)cc1 — higher, 1.1
- C=CCn1c(SCc2ccc3nonc3c2)nnc1-c1cccs1 — higher, -0.249
- Cc1cc(C)c(S(=O)(=O)O)c(C)n1 — higher, 0.179
- COc1ccnc(Oc2ccc(F)cc2)c1C(=O)N/C=N/OCc1ccc(Cl)cc1Cl — higher, 0.11
- O=C(Cn1cnnn1)OCC(=O)c1ccc(Cl)s1 — higher, 0.489
- Nc1nc2n(n1)C(c1ccco1)CC(c1ccc(Cl)c(Cl)c1)N2 (stereo not given) — higher, 2.38
- O=C(Nc1cccnc1)c1ccc(Cl)c(S(=O)(=O)N2CCCCCC2)c1 — higher, -0.876
- COc1ccccc1C(=O)NNC(=S)NC(=O)c1ccco1 — higher, 1.4
- C=CCOc1ccc(/C(CC)=N/O)cc1OC — higher, 0.241
- COc1ccc(NC(=O)c2cccnc2NCCc2ccccc2)cc1 — higher, -0.101
- CCOc1cc(C2C3=C(CCCC3=O)NC3=C2C(=O)CCC3)ccc1OCCO — higher, -0.386
- O=c1cc(CSc2nc3ccccc3[nH]2)c2ccccc2[nH]1 — higher, -0.605
- Cc1cccc(Oc2ncc(-c3ccc(Cl)cc3)cn2)c1C — higher, 0.014
- COc1ccc(C(=O)Nc2ccc3c(c2)nc2n3CCSC2)cc1 — higher, -0.443
- COc1ccc(NC(=O)CN(C2CCCCC2)S(C)(=O)=O)cc1Cl — higher, -0.0869
- Cc1ccc(O)c(C=Nc2cc(C)ccc2O)c1 — higher, -0.107
- CC(C)(C)c1ccc(C(=O)CS(=O)(=O)c2ccccc2)cc1 — higher, 0.0407
- COc1cc(NC(=O)c2cc3nc(-c4ccccc4)cc(-c4ccccc4)n3n2)cc(OC)c1OC — higher, -0.204
- N#Cc1nc(Cc2ccccc2)oc1NCCCn1ccnc1 — higher, -0.784
- CC(C)CCn1c(Sc2nc3ccccc3s2)nc2c1c(=O)[nH]c(=O)n2C — higher, 0.88
- Cc1cccc(-c2noc(CN(C(=O)c3ccc(Br)o3)C(C)C)n2)c1 — higher, -0.599
- Cc1cccc2cc(C3CC(c4cccs4)=NN3C(=O)CCC(=O)O)c(Cl)nc12 (stereo not given) — higher, -0.298
- COc1cccc(NC(=O)C(OC(=O)c2ccc([N+](=O)[O-])o2)c2ccccc2)c1 (stereo not given) — higher, -0.8
- CS(=O)(=O)N(CC(=O)N1CCN(c2ccccc2F)CC1)c1cc(C(F)(F)F)ccc1Cl — higher, 0.422
- O=S(=O)(c1ccc2oc3ccc(S(=O)(=O)N4CCCCC4)cc3c2c1)N1CCCCC1 — higher, -0.437
- Cc1nnc(NC(=O)c2c(F)c(F)c(F)c(F)c2F)s1 — higher, -0.26
- COc1ccccc1CSc1nc2ccccc2[nH]1 — higher, -0.12
- c1cncc(-c2nnc(-c3ccco3)o2)c1 — higher, -0.101
- COc1cc(C2C(N3C(=O)c4ccccc4C3=O)C(=O)N2c2ccc(C)c(C)c2)cc(OC)c1OC (stereo not given) — higher, 0.503
- CCOc1ccc(NC(=O)CSc2nnc(C)n2CC2CCCO2)cc1 (stereo not given) — higher, -0.429
- C=CCNc1nnc(Cl)c2ccccc12 — higher, 0.165
- O=c1c(-c2nnc(SCc3ccc(Cl)cc3)o2)cccn1Cc1ccccc1 — higher, 0.618
- O=C(CCn1nnc(-c2cccs2)n1)NCc1ccccc1Cl — higher, -0.126
- CC1CCCC(NC2CCCCNC2=O)C1 (stereo not given) — higher, 0.454
- COc1ccc(-c2nn(C)c(=O)c3ccccc23)cc1CNC(=O)CN1CCOCC1 — higher, 0.293
- CC(=O)Nc1cc(-c2nn(C)c(=O)c3ccccc23)ccc1N1CCOCC1 — higher, -0.149
- COc1ccc(NC(=O)Cn2c(=O)n(CC(=O)NCc3ccco3)c(=O)c3ccccc32)cc1OC — higher, -0.0297
- COc1cc(C(=O)N2CCN(S(=O)(=O)c3ccc(F)cc3)CC2)cc(OC)c1OC — higher, -0.0276
- COc1ccc(CNC(N)=O)cc1 — higher, 0.189
- CCOc1nc(N2CCCCC2)nc(-n2cc(-c3ccccc3)nn2)n1 — higher, -0.0557
- CCN(CC)C(=S)SCC(=O)c1ccc(F)cc1 — higher, -0.176
- CC(C)(C)NCc1ccccc1OCc1cccs1 — higher, 0.423
- CCN(CC)C(=O)C(C)OC(=O)COc1ccc(Cl)cc1Cl (stereo not given) — higher, -0.176
- COc1ccc(S(=O)(=O)N(C)CC(=O)Nc2ccc3c(c2)OCO3)cc1OC — higher, 1.01
- CC(=O)Nc1cccc(Oc2ccc(-c3noc(C)n3)cc2)c1 — higher, 0.194
- Cc1cc(Nc2ccccc2)nn1C(=O)c1ccc([N+](=O)[O-])cc1 — higher, -0.0254
- CC1CCCN(c2nc3c(c(=O)[nH]c(=O)n3C)n2Cc2ccccc2Cl)C1 (stereo not given) — higher, -0.901
- CC(C)OC(=O)C(C)Oc1ccc(C(=O)NCCc2ccccc2)cc1 (stereo not given) — higher, -0.245
- COC(=O)c1ccc(Oc2cc(C)nc(SC)n2)cc1 — higher, -0.268
- Cc1ccccc1NC(=O)NCC1CCCO1 (stereo not given) — higher, 0.73
- O=C(Nc1ccc(Cl)cn1)C1CCCN1S(=O)(=O)c1ccccc1 (stereo not given) — higher, -0.315
- O=C(NCc1cccnc1)C1CCCN(S(=O)(=O)c2ccc(Br)cc2)C1 (stereo not given) — higher, 0.0175
- O=C(c1ccccc1)c1cc(F)c(N2CCOCC2)cc1Cl — higher, 0.155
- COc1ccc(NC(=O)CS(=O)CC(=O)NC2CCCc3ccccc32)cc1 (stereo not given) — higher, -0.738
- CCOc1ccc(CNc2ncnc(N)n2)cc1 — higher, -0.398
- CCOC(=O)NN1C(=O)c2ccccc2NC1c1ccc(OC)cc1 (stereo not given) — higher, -0.117
- CCCC(=O)Nc1ccc(Cl)c(NC(=O)c2ccc([N+](=O)[O-])cc2Cl)c1 — higher, 0.901
- O=c1ccccn1Cc1c(F)cccc1Cl — higher, 0.266
- CCOc1ccc(Nc2nc(NCCN3CCOCC3)nc(OC)n2)cc1 — higher, -0.361
- O=[N+]([O-])c1ccccc1-c1cc(-c2ccccc2O)n[nH]1 — higher, -0.676
- O=C(C1CCC1)N1CCc2cc(S(=O)(=O)Nc3ccc4c(c3)OCO4)ccc21 — higher, 0.0416

`O=C(CSc1nc(-c2ccccc2)cc(=O)[nH]1)N1CCc2ccccc21` was tested, and the z-score was active: 9.86.
For `COc1ccc(-c2cc(C(F)(F)F)c3c(n2)sc2c(O)cc(=O)[nH]c23)c(OC)c1`, the z-score was active: 5.32.
With `CCCc1nnc2n1N=C(c1ccc(OC)c(OC)c1)CS2` the z-score was active: -3.5.
